# Assay results: publication PMC4336329 (PLoS ONE, 2015)
# The campaign covered roughly 310,000 compounds. About 2,200 (0.71%) showed an effect of 50% or more. Effects have a minus sign here. The list shows a part of the results.
# Molecular target: human ether-à-go-go-related gene (hERG) potassium channel (human, UniProt Q12809)
# Experiment: primary screen, population patch clamp on CHO cells stably expressing hERG
# human ether-à-go-go-related gene (hERG) potassium channel, sequence (Q12809 whole entry, looked up): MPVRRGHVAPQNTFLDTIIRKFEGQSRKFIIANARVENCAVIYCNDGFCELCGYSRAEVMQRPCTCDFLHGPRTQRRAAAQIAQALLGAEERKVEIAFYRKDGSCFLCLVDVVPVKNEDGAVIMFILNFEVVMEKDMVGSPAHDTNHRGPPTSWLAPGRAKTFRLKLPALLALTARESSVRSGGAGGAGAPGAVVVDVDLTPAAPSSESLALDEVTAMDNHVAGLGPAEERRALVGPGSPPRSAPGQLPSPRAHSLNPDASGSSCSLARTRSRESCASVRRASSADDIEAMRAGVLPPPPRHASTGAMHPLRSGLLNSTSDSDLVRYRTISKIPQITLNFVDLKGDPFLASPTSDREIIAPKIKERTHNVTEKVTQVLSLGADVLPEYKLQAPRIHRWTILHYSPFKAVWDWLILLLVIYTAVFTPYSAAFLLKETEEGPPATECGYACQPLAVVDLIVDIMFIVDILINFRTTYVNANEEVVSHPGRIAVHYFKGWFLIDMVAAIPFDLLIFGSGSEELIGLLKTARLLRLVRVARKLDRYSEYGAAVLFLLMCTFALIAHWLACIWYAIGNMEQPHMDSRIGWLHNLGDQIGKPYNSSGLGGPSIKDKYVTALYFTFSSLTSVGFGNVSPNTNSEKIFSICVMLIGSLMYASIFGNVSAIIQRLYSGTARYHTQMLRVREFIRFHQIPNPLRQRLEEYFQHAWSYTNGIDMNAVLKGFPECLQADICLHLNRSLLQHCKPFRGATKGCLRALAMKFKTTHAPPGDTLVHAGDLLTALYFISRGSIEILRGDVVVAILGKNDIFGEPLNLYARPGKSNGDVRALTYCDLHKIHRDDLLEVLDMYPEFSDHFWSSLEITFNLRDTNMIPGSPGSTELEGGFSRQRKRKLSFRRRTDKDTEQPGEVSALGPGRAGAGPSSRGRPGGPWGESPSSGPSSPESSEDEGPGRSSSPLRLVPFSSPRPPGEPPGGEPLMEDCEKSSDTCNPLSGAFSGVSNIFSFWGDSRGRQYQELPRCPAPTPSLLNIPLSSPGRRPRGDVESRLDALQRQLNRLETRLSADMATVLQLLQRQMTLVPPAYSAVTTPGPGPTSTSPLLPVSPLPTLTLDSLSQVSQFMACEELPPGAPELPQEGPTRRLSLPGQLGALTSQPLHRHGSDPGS
row,SMILES,"hERG current change (%, negative = inhibition) at 1uM [%]"
1,Cc1nc2c(C)[n+](CC(=O)c3ccccc3)ccc2n1C.[Br-],16.1
2,COC(=O)c1c(-c2cccs2)csc1NC(=O)c1cccnc1,11.6
3,CCc1nnc(NC(=O)CSc2nc3ccccc3c(=O)n2CCCOC)s1,13.4
4,CSc1nnc(NC(=O)c2ccco2)s1,15.7
5,Cc1cc(C)n(-c2ccccc2C#N)n1,3.5
6,COc1ccc(S(=O)(=O)NCc2ccncc2)cc1NC(=O)c1ccc(Cl)cc1,-26.8
7,O=c1cc(CO)oc(C(Nc2cccc([N+](=O)[O-])c2)c2ccccn2)c1O (stereo not shown),7.31
8,Cc1ccc(N(CC(=O)NC2CCCCC2)C(=O)c2ccc(C)s2)cc1,7.77
9,Cc1ccc(/C=N/Nc2nc3ccccc3[nH]2)s1,-9.53
10,COc1ccccc1NC(=O)c1ccc(NC(=O)c2cc3c(s2)CCC3)cc1,17.3
11,CCC(=O)Nc1cc2c3c(c1)CCC(=O)N3CCC2,-4.28
12,O=C(NCc1ccco1)c1sc2cc(F)ccc2c1Cl,5.09
13,CCOC(=O)Cn1c(S(=O)(=O)Cc2ccccc2Cl)nc(-c2ccccc2)c1-c1ccccc1,7.23
14,CC(C)(C)Nc1nc2ccc([N+](=O)[O-])cc2o1,3.84
15,O=C(COC(=O)c1cccnc1Cl)NCc1cccs1,10.9
16,O=C(Cc1ccc(Cl)cc1)Nc1nc2ccccc2[nH]1,-14.5
17,O=C(Cc1ccccc1)NNC1CC(=O)N(c2ccc(Br)cc2)C1=O (stereo not shown),20.7
18,CCOc1ccc(N=C(C)c2ccccc2O)cc1,10.3
19,Cc1cc(C(=O)O)ccc1[N+](=O)[O-],8.73
20,CCCOc1ccc(N2C(=O)CC(N(CCc3ccc(OC)cc3)C(=O)c3cccc(F)c3)C2=O)cc1 (stereo not shown),5.86
21,COc1ccc(CC(=O)Nc2ccc3c(c2)C(=O)N(CCC(=O)O)C3=O)cc1,14.7
22,O=C(NCc1ccccn1)c1ccc(OC2CCN(Cc3cccs3)CC2)cc1,20.4

row,SMILES,"hERG current change (%, negative = inhibition) at 1uM [%]"
1,COc1ccc2ccccc2c1/C=N/NC(=O)c1sc(N)c(C#N)c1C,9.38
2,O=C(O)CCCn1cc(NC(=O)COc2cccc(Cl)c2)cn1,-12.7
3,COc1cccc(CNC(=S)Nc2ccc(Cl)cc2C)c1,7.96
4,COc1ccc(OC)c(C(=O)c2ccc(C(=O)N3CCCCC3)cc2)c1,0.398
5,Cn1c(Cn2c(=O)sc3ccccc32)nnc1SCC(=O)Nc1ccccc1,0.718
6,Cc1ccc(OCCSc2nnc(-c3ccncc3)n2C)cc1,7.39
7,Cc1ccc(C(=O)NC(=S)Nc2ccc(NC(=O)c3cccs3)cc2)cc1[N+](=O)[O-],8.27
8,CC(C)CN(CC(C)C)C(=O)COn1nnc2ccc(S(=O)(=O)N3CCOCC3)cc21,-5.2
9,CN(C)c1ccc(NC(=O)COC(=O)CCC(=O)c2ccc(F)cc2)cc1,-10.4
10,COc1ccc(CN(C)C(=S)Nc2ccc(OC(F)F)cc2)cc1,-12.3
11,CCOc1ccc(NC(=O)NC2CCCCCCC2)cc1,13.1
12,COc1ccc(-n2c(SCC(=O)N3CCOCC3)nc3ccccc3c2=O)cc1,9.44
13,CN(C)c1ccc(C(=O)OCC(=O)Nc2ccc(N3CCOCC3)cc2)cc1,10.6
14,COc1cc(/C=C2\C(=N)N3N=C(C(C)C)SC3=NC2=O)ccc1OCCOc1ccc(NC(C)=O)cc1,12.1
15,Cc1ccc(NC2Sc3ccccc3NC2=O)cc1Cl (stereo not shown),12.9
16,CCOc1cc(/C=N/NC(=O)c2cc(-c3cccc(OC)c3)nc3ccccc23)ccc1O,12.1
17,COC(=O)C1=C(c2c(C)noc2C)C[C@@H]2CC[C@H]1N2C(=O)NCCO,14.8
18,CN(Cc1cc2ccccc2[nH]c1=O)C(=O)C1CCCCC1,4.83
19,COc1cc(CN2CCC(Cc3ccccc3)CC2)c([N+](=O)[O-])cc1OC,4.65
20,CCC(C)(C)NC(=O)C(C(C)C)N(CC1CCCO1)C(=O)CNS(=O)(=O)c1ccc(F)cc1 (stereo not shown),6.78
21,CCCc1nc(SCC(=O)N2CCc3ccccc32)c2c(C)c(C)sc2n1,14.5
22,Cc1nnc(SCC(=O)Nc2nccs2)n(N)c1=O,19.7

row,SMILES,"hERG current change (%, negative = inhibition) at 1uM [%]"
1,N/C(=N\OS(=O)(=O)c1ccc2ccccc2c1)c1cccnc1,11.9
2,CCN(CC(=O)NC1CCS(=O)(=O)C1)S(=O)(=O)c1ccccc1Cl (stereo not shown),7.76
3,CC(=O)N1CC=CC1(CC(C)C)C(=O)NCCN1CCOCC1 (stereo not shown),16.8
4,Cc1cccc(C(=O)OCC(=O)N(CC(C)C)c2c(N)n(Cc3ccccc3)c(=O)[nH]c2=O)c1O,17.1
5,COc1ccc(/C(O)=C/C(=O)C(=O)Nc2c(C)n(C)n(-c3ccccc3)c2=O)cc1,19.9
6,CCc1noc(C)c1C(=O)Nc1cccc(S(=O)(=O)N2CCCCCC2)c1,-3.12
7,Cc1cccc(Cc2c(C)nc3c(C(=O)N4CCN(Cc5ccc6c(c5)OCO6)CC4)cnn3c2C)c1,0.189
8,Nc1ncnc2nc(SCC(=O)Nc3cccc(C(F)(F)F)c3)[nH]c12,7.71
9,CCOc1ccc(C(=O)NC(=S)Nc2ccc(N3CCOCC3)c(Cl)c2)cc1[N+](=O)[O-],12.8
10,N/C(=N\OC(=O)Cc1ccccc1)c1ccccc1Cl,10.6
11,FC(F)Oc1ccc(/C=N/N2CCCCC2)c(OC(F)F)c1,3.83
12,Cc1nc(-c2cccc(NC(=O)COc3ccc(Cl)cc3)c2)cs1,1.28
13,O=C(COC(=O)c1nc(Cl)ccc1Cl)NC1CCS(=O)(=O)C1 (stereo not shown),10.9
14,Cc1ccc(C(=O)C(OC(=O)CNS(=O)(=O)c2ccccc2)c2ccccc2)cc1 (stereo not shown),13.4
15,NCCCC[C@@H](C(=O)N1CCNCC1)n1cc(CN)nn1,12.2
16,COc1ccc(C2(C#N)CC[N+](C)(C)CC2)cc1.[Br-],2.71
17,COCCn1c(N2CCN(c3ccc(OC)cc3)CC2)nc2c1c(=O)n(C)c(=O)n2C,1.59
18,CCOCCCNC(=S)Nc1cc(OCC)c(NC(=O)c2ccco2)cc1OCC,7.7
19,CC(C)(C)CC(C)(C)NCC(O)COc1ccc2c(c1)CCC2.Cl (stereo not shown),8.51
20,CCOC(=O)Cn1c(CN2CCN(c3cccc(Cl)c3)CC2)nc2c1c(=O)[nH]c(=O)n2C,0.68
21,O=C(Cn1cnc([N+](=O)[O-])c1)c1ccc(F)cc1,10.6
22,CCCC[n+]1ccn(C2=C([O-])c3ccccc3C(=O)/C2=N\S(=O)(=O)c2ccc(Cl)cc2)c1,-5.25

row,SMILES,"hERG current change (%, negative = inhibition) at 1uM [%]"
1,CC(c1cccs1)N(Cc1ccco1)C(=O)Nc1ccc(Cl)c(Cl)c1 (stereo not shown),0.717
2,CCCCOC(=O)Nc1nnc(C(C)C)s1,11.5
3,CCC(=O)NC(NC(=O)CC)C(Cl)Cl,-2.92
4,CC(NC(=O)c1cc2ccccc2oc1=O)c1ccccc1 (stereo not shown),3.46
5,CCCC1(c2ccccc2)NC(=O)N(CC(=O)NCC2COc3ccccc3O2)C1=O (stereo not shown),3.79
6,CC1CCC(NC(=O)CCCn2sc3ccccc3c2=O)CC1 (stereo not shown),17
7,O=C(NS(=O)(=O)c1ccccc1[N+](=O)[O-])c1ccccc1,13.2
8,Cc1cc(C)c(NC(=O)C(C)OC(=O)c2cc(Br)c(Br)s2)c(C)c1 (stereo not shown),11
9,Cc1nn(-c2ccccc2)c(C)c1/C=N/n1c(-c2ccc(C(C)(C)C)cc2)n[nH]c1=S,10.9
10,COc1ccc(NC(=O)C2CCCN(C(=O)c3ccc(Cl)cc3)C2)cc1Cl (stereo not shown),9.25
11,O=C(CNS(=O)(=O)c1ccc(Cl)cc1)N/N=C/c1ccco1,14.6
12,CCC1CCCCN1CCNS(=O)(=O)c1ccc2c(c1)CCN2C(C)=O (stereo not shown),-5.51
13,Cc1ccc(CS(=O)Cc2ccc(C(=O)NCCc3ccccc3)o2)cc1 (stereo not shown),2.62
14,Cc1ccc(C(=O)Nc2nnc(S(=O)(=O)N3CCN(c4ccc(F)cc4)CC3)s2)cc1,6.33
15,COC(=O)c1c(NC(=O)c2cccc(S(=O)(=O)N3CCN(C)CC3)c2)sc(C)c1C,16.3
16,CC(NC(=O)Cn1cccc1C(=O)c1ccccc1)c1ccccc1 (stereo not shown),18.7
17,CCC1(C)Cc2[nH]c(=O)c(C#N)cc2CO1 (stereo not shown),11.5
18,CCn1c(=S)[nH]c2cc(C(=O)OC)ccc2c1=O,8.38
19,O=C(Nc1ccccc1[N+](=O)[O-])c1cc(S(=O)(=O)Nc2ccccn2)ccc1Cl,12.4
20,Cc1nc(N)nc(Cl)c1Cc1ccc(Cl)cc1,16.2
21,NS(=O)(=O)c1ccc(CCNc2nc(C(F)(F)F)nc3ccccc23)cc1,14.2
22,CC(=O)N/C(=C\c1ccccc1)C(=O)OCCCOC(=O)/C(=C/c1ccccc1)NC(C)=O,12.5
